Legend:
Assay in all cases: microbe, parasite or virus in culture
Dengue Type 4 = settings: Huh-7, read-out: Dengue Type 4 (EC50 uM)
Dengue Type 1 = settings: Huh-7, read-out: Dengue Type 1 (EC50 uM)
Dengue Type 3 = settings: Huh-7, read-out: Dengue Type 3 (EC50 uM)

SMILES: CC(C)OC(=O)[C@H](C)N[P@](=O)(OC[C@H]1O[C@@H](n2ccc(=O)[nH]c2=S)[C@](C)(O)C1O)Oc1ccccc1 (stereo partly drawn) [ENUC-02023]
- EC50 (Dengue Type 4): 14.2 µM
- EC50 (Dengue Type 1): 1.76 µM
- EC50 (Dengue Type 3): 7.28 µM
